Laboratory results as given in PubChem BioAssay AID1919002 (Molecular Pharmacology Branch, DTP, NCI, 2023).
The source holds more than one record for some entries. This is not the full list of results. An entry can have further records. The values listed for one entry repeat one measurement (runs, samples, wells, individuals or studies). Signs of the kind (2×) say how often a value occurs here.

Test system: 743489-274-T-PDC complex spheroid growth
Experiment: Anticancer human tumor 743489-274-T-PDC patient-derived renal cell carcinoma cell line growth inhibition [AhR]
Conditions: stronger effect = lower value
Description: Multicellular complex tumor spheroid response to aryl hydrocarbon receptor antagonists in combination with a variety of drugs and investigational agents in selected tumor cell lines
The current study was undertaken to assess response to aryl hydrocarbon receptor antagonists in combination with standard-of-care drugs and investigational agents in solid tumor complex spheroid models. Complex spheroids include a stromal component modeled by human endothelial cells (HUVEC) and fibroblasts modeled by human mesenchymal stem cells (MSCs). The concentration ranges selected for each drug and investigational agent were based upon clinically achievable concentrations if the clinical Cmax of the agent was known.
Compounds. The drugs and investigational agents: BAY 2416964 (NSC825713), GNF351 (NSC835774), CH-223191 (NSC835775), CPI-455 (NSC825282), aza-TdCyd (NSC777586), decitabine (NSC127716), belinostat (NSC758774), entinostat (NSC756642), pevonedistat (NSC761192), tazemetostat (NSC777109), talazoparib (NSC765396), olaparib (NSC753686), selinexor (NSC780203), nedisertib (M3814, NSC802822), bortezomib (NSC756655), venetoclax (NSC766270), doxorubicin (NSC123127), elimusertib (BAY189344, NSC800525), ceralasertib (AZD6738, NSC777638), TAK-243 (NSC785004), alisertib (NSC759677), etoposide (NSC141540), topotecan (NSC609699), eribulin (NSC707389), gemcitabine (NSC613327), carboplatin (NSC241240), cisplatin (NSC119875), and SN-38 (NSC673596) were obtained from the National Cancer Institute (NCI) Developmental Therapeutics Program Chemical Repository (32). The FDA-approved anticancer drug set is available from the Developmental Therapeutics Program at https://dtp.cancer.gov/organization/dscb/obtaining/available plates.htm. […] The stock solutions were prepared in dimethyl sulfoxide (DMSO, Sigma-Aldrich, St. Louis, MO, cat. D2650), except for the platinum compounds which were prepared in saline (Quality Biological, Gaithersburg, MD, cat. 114-055-101), at 800-fold the tested concentration and stored at -70 degrees C prior to their use. All drugs and investigational agents were tested over a range starting from a high concentration at or near the clinical Cmax and decreasing in half-log increments. If the clinical Cmax for an agent had not been determined, the highest concentration tested was 10 microM (Table 1).
Cell Culture. All cells were maintained in an incubator at 37 degrees C and 5% CO2 with 95% humidity. The PDC lines were cultured according to standard operating procedures established by the NCI PDMR (https://pdmr.cancer.gov). Briefly, all PDCs were thawed and cultured in Matrigel-coated flasks prepared with a working solution of 1X Ham's F-12 nutrient mix, without supplementation (Invitrogen, Waltham, MA, cat. 11765054), 100 U/mL penicillin-streptomycin (Invitrogen, cat. 15140122), and 2.5% Matrigel (Corning Inc., Corning, NY, cat. 354248) for the first three passages. All PDCs were cultured in complete DMEM/F-12 media containing advanced DMEM/F-12 (Invitrogen, cat. 12634028), 4.9% defined fetal bovine serum, heat inactivated (HyClone Laboratories Inc., Logan, UT, cat. SH30070.03HI), 389 ng/mL hydrocortisone (Sigma-Aldrich, cat. H4001), 9.7 ng/mL human EGF recombinant protein (Invitrogen, cat. PHG0313), 23.4 microg/mL adenine (Sigma-Aldrich, cat. A2786), 97.3 U/mL penicillin-streptomycin (Invitrogen, cat. 15140122), 1.9 mM L-glutamine (Invitrogen, cat. 25030081), and 9.7 microM Y-27632 dihydrochloride (Tocris Bioscience, Bristol, United Kingdom, cat. 1254). The PDCs were cultured in complete DMEM/F12 media without 10 microM Y-27632 dihydrochloride for at least two passages prior to the screen. The established cell lines NCI-H1341 and […] were cultured in DMEM/F-12, HEPES (Invitrogen, cat. 11330032), 5% defined fetal bovine serum (HyClone Laboratories Inc., cat. SH30070.03), ITS premix universal culture supplement [insulin (5 microg/mL), transferrin (5 microg/mL), and selenious acid (5 ng/mL)] […]
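Note: spheroids exposed to agents for 7 days before readout; 100% = DMSO vehicle control wells.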

Compound | viability, T/C (compound alone 0.1 µM) | viability, T/C (compound alone 1 µM) | viability, T/C (compound alone 3.16 µM) | viability, T/C (compound alone 10 µM)
CC(CO)NC(=O)c1cc(-c2ccc(Cl)cc2)nn(-c2cnn(C)c2)c1=O (centres undefined) | 89.9, 104 (2×), 94.1, 107, 88.2, 88.7, 98.7, 94.5, 93.2, 93.4, 87.1, 81.9, 89.1, 92.8, 94.4, 98.8, 106, 97.9, 97.2% | 88.3, 110, 86.5, 95.1, 88, 97.1, 92, 93.9, 84.5, 93 (2×), 86.2, 93.6, 91.1, 91.5, 87.5, 91, 96.9, 91.8, 101, 94.9% | 87.9 (2×), 89.5, 107, 92.1, 88.2, 81.5, 85.4, 89.9, 94.2, 77.4, 86.5, 91.2, 81.7, 93.9, 84.4, 97, 94.1, 88.7% | 91.5, 85.9, 107, 89.2, 98.6, 93.9, 90.9, 81.1, 92.9, 86.3, 81.8, 90.3, 96.6, 79.5, 98.5, 91.3, 90.4, 99.5, 99%
Cc1cncc(-c2nc(NCCc3c[nH]c4ccccc34)c3ncn(C(C)C)c3n2)c1 |  | 101, 82, 95.4, 79.4, 91.7 (2×), 99.4, 97.9, 104, 89.2, 85.1, 96.6, 102 (2×), 95.9, 99.7, 108 (2×), 100, 88.9% | 118, 86.6, 107, 93.8, 106, 109, 133, 108, 104 (2×), 93.4, 98.2, 114, 105, 90.8, 98.8, 123, 110, 119, 95.2% | 119 (2×), 104, 112 (3×), 105, 108, 102, 113, 91.8, 115, 100, 109, 95.2, 117, 99.7, 131, 138, 107%
Cc1ccccc1N=Nc1ccc(NC(=O)c2ccnn2C)c(C)c1 |  |  | 84.7, 84.6, 77.7, 75.1, 95.2, 83.1, 90.9, 81.6, 78.3, 90.5, 87, 84.5, 70.4, 87.1, 83.3, 101, 75.6, 82.8, 76.6, 77.5% | 90, 81.9, 80.4, 81.3, 82, 84.2 (2×), 89.1, 76.8, 91.8, 86.7, 77.7, 68.2, 86.6, 98.8, 86.4, 87.6, 85.5, 78.6, 82.3%
